Data: PubChem BioAssay AID1345083 (National Center for Advancing Translational Sciences (NCATS), 2018)
Among all 94,000 compounds or so, about 6,200 (6.6%) were called active. The shares of active, inactive and inconclusive entries below differ from those in the screen. Calls come from the whole dose curve; as a rule, active = well fitted inhibition curve with a large enough effect; inconclusive = small, poorly fitted or top-dose-only effect; inactive = flat fitted curve, though single readings scatter. Potencies beside an inconclusive call are fits to weak or partial responses and may not hold up.
% is set by controls: 0 for no effect and ±100 for the full control effect; potency is the fitted concentration of half-maximal effect; tags give direction and shape of the fitted curve.

Experiment: Cytotoxic Profiling in HEK 293 Cell Line of Diverse Libraries Using Quantitative High-Throughput Screening; note: nearly all actives have a fitted effect of over 60% in size
Settings: HEK 293 viability, ATP luminescence (CellTiter-Glo), 48-72 h; activity change, negative = cytotoxicity: at 115 µM (top of the series) unless noted; series mostly up to 115 µM
In short: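 Read-out: CellTiter-Glo ATP luminescence. Cells: HEK 293, 250 cells/well. Exposure: 48 or 72 hr, 37 degree Celsius.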
With `CC(C)(O)CCc1cccc(C(=O)NCc2ccc3c(c2)OCCCO3)c1` the Potency was inconclusive: 44.7 µM [inhibitor, partial curve, poor fit].
In the case of `CCn1nc(CC(C)C)cc1C(=O)N1CCN(c2nc(C)cc(C)n2)CC1`, the Potency was inconclusive: 50.1 µM [inhibitor, partial curve, poor fit].
For `O=C(NCC1CC1)c1cccc(OC2CN(Cc3ccncc3F)C2)c1`, the “activity change, negative = cytotoxicity” value was inactive: -22%.
With `Cc1cccc2c1O[C@H]1[C@H](CO)CN([S+](=O)([O-])Cc3ccccc3)[C@@H]21` the Potency was active: 79.4 µM.
In the case of `Cc1ccccc1OCc1nc(C2CN(C(=O)c3ccc4ccccc4n3)C2)no1`, the Potency was inconclusive: 56.2 µM [inhibitor, partial curve, poor fit].
In the case of `COc1ccc(CN2CCC3(CC2)NC(=O)c2ccccc2O3)cc1`, the “activity change, negative = cytotoxicity” value was inactive: -23.7% [at 172 µM].
For `O[C@H]1[C@H](NCc2ccc(-c3ccccc3)cc2)[C@H]2CO[C@H](O2)[C@@H]1Oc1ccccc1`, the Potency was active: 89.1 µM.
In the case of `O=C(NCCCc1ccccc1)C1CCN(c2ccnc3ccnn23)CC1`, the Potency was active: 39.8 µM.
For `COCc1ccc2c(c1)c(OC(C)(C)C(=O)NCc1ccncc1)nn2Cc1ccccc1`, the “activity change, negative = cytotoxicity” value was inactive: -27.8%.
In the case of `CC(C)CCN1CCC(N2CCN(C(=O)C3CC3)CC2)C1=O` (stereo unspecified), the Potency was inconclusive: 89.1 µM [inhibitor, single point].
In the case of `O=C(NCc1ccc(F)cc1F)c1noc(-c2ccc(F)cc2)n1`, the “activity change, negative = cytotoxicity” value was inactive: -10.1%.
In the case of `Cc1ccc(-c2noc([C@@H]3C[C@H](NS(=O)(=O)Cc4ccccc4)CN3C)n2)cc1`, the Potency was active: 100 µM.
For `CCc1ccc(C(=O)N2CCC(Oc3nccnc3N(C)C)C2)cc1` (stereo unspecified), the Potency was inconclusive: 70.8 µM [inhibitor, single point].
In the case of `O=C(N[C@H]1CCOC[C@H]1C1CCOCC1)c1ccc(-n2ccnc2)cc1`, the “activity change, negative = cytotoxicity” value was inactive: -9.18%.
With `C=CCCC(=O)N1[C@@H](c2ccco2)[C@@H](C(=O)OCC)C[C@]12CCCCN(CCOC)C2=O` the Potency was inconclusive: 89.1 µM [inhibitor, single point].
For `COc1ccc(-c2cn3cc(C(=O)NCc4cccc(OC)c4)nc3s2)cc1`, the Potency was inconclusive: 56.2 µM [inhibitor, partial curve, poor fit].
For `COC(=O)COc1ccc(CC2C(=O)NCCc3ccccc3OCC(=O)N2C)cc1` (stereo unspecified), the Potency was inconclusive: 89.1 µM [inhibitor, partial curve, poor fit].
With `Cc1cccc2c(C3CCN(S(=O)(=O)c4cc(Cl)cc(Cl)c4)CC3)c[nH]c12` the Potency was active: 25.1 µM.
With `COCCCNC(=O)N1CCC(C)(c2noc(C3CCOCC3)n2)CC1` the “outcome” value was “inactive”.
For `CN1C(=O)C(CC(N)=O)=C2CCCCC21` (stereo unspecified), the “activity change, negative = cytotoxicity” value was inactive: -11.5%.
With `Cc1ccc(OCCC2CCN(C(=O)c3ccc(C)nc3)C2)cc1` (stereo unspecified) the Potency was inconclusive: 31.6 µM [inhibitor, partial curve, poor fit].
For `O=C(NCc1cccs1)c1ccc2nnc(C3CCCC3)n2c1`, the “activity change, negative = cytotoxicity” value was inactive: -10.8%.
For `CCc1ccc(C2CC(C(=O)NCc3ccc4c(c3)OCO4)CN(C(=O)c3ccc(F)cc3)C2)cc1` (stereo unspecified), the Potency was inconclusive: 28.2 µM [inhibitor, full curve, poor fit].
For `COc1ccccc1C(=O)N1CCCN(c2cc(-c3ccc(Cl)cc3)[nH]n2)CC1`, the Potency was inconclusive: 56.2 µM [inhibitor, partial curve, poor fit].
With `O=C(NCc1ccccc1Cl)c1nc2sccn2c1-c1cccnc1` the Potency was inconclusive: 100 µM [inhibitor, partial curve].
With `Cc1ccc2nc(CO[C@H]3CN(C(=O)C4CC4)C[C@H]3F)[nH]c2c1` the “activity change, negative = cytotoxicity” value was inactive: -7.53% [at 172 µM].
With `Cc1ccc(-n2nc(C)c([C@@H]3C=C[C@@H](NC(=O)NC(C)C)C3)c2C)cc1Cl` the Potency was inconclusive: 56.2 µM [inhibitor, partial curve, poor fit].
For `O=C1NC(=NC2CCCC2)C2(CCN([S+](=O)([O-])c3cccc(C(F)(F)F)c3)C2)N1c1cc(F)cc(F)c1` (stereo unspecified), the Potency was inconclusive: 89.1 µM [inhibitor, partial curve, poor fit].
With `O=C(Cc1c[nH]c2ncc(-c3ccccc3C(F)(F)F)cc12)N1CCOCC1` the Potency was inconclusive: 100 µM [inhibitor, partial curve, poor fit].
In the case of `O=C(N1C[C@H]2CC[C@H]1C2)C1(Oc2ccc(Cl)cc2)CCNCC1`, the Potency was inconclusive: 89.1 µM [inhibitor, single point].
For `COc1cccc(CN2CCCC(O)(CNC3CCCCCCC3)C2=O)c1` (stereo unspecified), the Potency was inconclusive: 89.1 µM [inhibitor, single point].
For `COc1cc(OC)cc(C(=O)N2CCC3(CC2)NC(=O)N(c2ccc(F)cc2)N3)c1`, the Potency was active: 28.2 µM.
In the case of `O=C(NCC(=O)N1CCCCC1)c1cccc(-c2ccc(C(F)(F)F)cc2)c1`, the Potency was inconclusive: 7.94 µM [inhibitor, full curve, poor fit].
With `COc1ccc(C(=O)NCC2Cn3cccc3CN2Cc2cccnc2)cc1` (stereo unspecified) the Potency was inconclusive: 89.1 µM [inhibitor, single point].
For `CN(C)c1cccc(C(=O)N2CCNc3cnc(Nc4ccc(N5CCOCC5)cc4)nc3C2)c1`, the Potency was inconclusive: 50.1 µM [inhibitor, partial curve, poor fit].
In the case of `Cc1noc(C)c1CNC(=O)[C@H]1CN(Cc2ccccc2)C[C@H]1C(=O)O`, the Potency was inconclusive: 100 µM [inhibitor, single point].
In the case of `COc1cccc(CNC(=O)C2CCN(C(=O)c3ccc(-c4cccc(OC)c4)cc3)CC2)c1`, the Potency was inconclusive: 28.2 µM [inhibitor, partial curve, poor fit].
With `CC(C(=O)NCC1CCCO1)N1C(=O)COc2ccc(C(=O)COc3cccc(Cl)c3)cc21` (stereo unspecified) the Potency was inconclusive: 79.4 µM [inhibitor, partial curve].
In the case of `COCCNC(=O)CCCN1C(=O)COc2ccc(C(=O)COc3ccc(C)cc3Cl)cc21`, the Potency was inconclusive: 89.1 µM [inhibitor, single point].
For `Cc1ccc(NC2=N[C@H]3[C@@H](O)[C@H](O)C[C@H](C(=O)NCc4cccnc4)[C@H]3S2)cc1`, the “activity change, negative = cytotoxicity” value was inactive: -5.68% [at 172 µM].
For `CCOC(=O)C(Cc1cccc(N2CCN(C(=O)c3c(Cl)cccc3Cl)CC2)c1)OC` (stereo unspecified), the Potency was inconclusive: 50.1 µM [inhibitor, partial curve, poor fit].
